Results taken from the supplement of paper PMC4604168 (melanoma cell lines).
This is one part of the list. Repeats are few or missing, and single values can be far off.

system: IST-MEL1; test: cell count relative to DMSO control; melanoma cells; higher = more viable cells; details: library dose: standard library concentration; 72 h
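Note: cells treated in 1,536-well plates, then fixed and DAPI-stained, with nuclei counted from automated high-throughput microscope images.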

| Structure (SMILES) | cell count |
| --- | --- |
| NC1(c2ccc(-c3nc4ccn5c(=O)[nH]nc5c4cc3-c3ccccc3)cc2)CCC1 + Oc1nc(-c2ccc(C(F)(F)F)cc2)nc2c1CSCC2 [XAV939] (first compound 2 µM, partner dose 10 µM) | 107% |
| CS(=O)(=O)c1ccc(C(=O)Nc2ccc(Cl)c(-c3ccccn3)c2)c(Cl)c1 [vismodegib] + O=C(O)C(=O)Nc1sc2c(c1C(=O)O)CCNC2 [TCS401] (first compound 5 µM, partner dose 8.33333 µM) | 107% |
| CS(=O)(=O)c1ccc(C(=O)Nc2ccc(Cl)c(-c3ccccn3)c2)c(Cl)c1 [vismodegib] + Cn1c(Nc2ccc(C(F)(F)F)cc2)nc2cc(Oc3ccnc(-c4ncc(C(F)(F)F)[nH]4)c3)ccc21 [CHIR265] (first compound 5 µM, partner dose 0.4 µM) | 97.9% |
| CN(c1ncccc1CNc1nc(Nc2ccc3c(c2)CC(=O)N3)ncc1C(F)(F)F)S(C)(=O)=O + COc1cc2ncnc(Nc3ccc(Oc4ccccc4)cc3)c2cc1OC [SrcI1] (first compound 0.4 µM, partner dose 10 µM) | 80% |
| NC1(c2ccc(-c3nc4ccn5c(=O)[nH]nc5c4cc3-c3ccccc3)cc2)CCC1 + Oc1cc(-c2nc(-c3ccccc3)[nH]c2-c2ccncc2)ccc1Cl [L779450] (first compound 2 µM, partner dose 1 µM) | 86.8% |
| CS(=O)(=O)c1ccc(C(=O)Nc2ccc(Cl)c(-c3ccccn3)c2)c(Cl)c1 [vismodegib] + C[C@]1(c2nc3c(C(N)=O)cccc3[nH]2)CCCN1 [Veliparib] (first compound 5 µM, partner dose 7 µM) | 94.4% |
